# Test results as given in PubChem BioAssay AID504832 (National Center for Advancing Translational Sciences (NCATS), 2011).
# Hit rate of the full screen: of about 310,000 compounds, about 18,000 (5.8%) were called active. The shares of active, inactive and inconclusive entries below differ from those in the screen. Calls come from the whole dose curve; as a rule, active = well fitted inhibition curve with a large enough effect; inconclusive = small, poorly fitted or top-dose-only effect, or another doubt; inactive = no such curve, though single readings can be large or run the other way. Potencies of inconclusive entries are left out as doubtful fits.
# Test: Primary qHTS for delayed death inhibitors of the malarial parasite plastid, 48 hour incubation
# Settings: P. falciparum luciferase growth in erythrocytes; series mostly up to 28.7 µM
# Method in brief: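 Luciferase-expressing parasites in RBCs, 2% Hct / 0.1% parasitemia final; RPMI 1640 + 0.5% Albumax; 37 C, 5% CO2, one generation; luminescence read-out, lower signal = inhibition.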
# Potency is the fitted concentration of half-maximal effect; tags give direction and shape of the fitted curve.
row,SMILES,Potency
1,CCOn1c(=O)c(-c2ccc(F)cc2)[n+]([O-])c2ccccc21,inactive
2,CCCOc1ccc(C2NC(=S)NC(C)=C2C(=O)c2ccccc2)cc1OC (configuration not stated),"inconclusive [inhibitor, single point]"
3,Cc1cccc(/C=C2/S/C(=N/N=C3\CC4CCC3(C)C4(C)C)NC2=O)c1 (configuration not stated),"inconclusive [inhibitor, single point]"
4,Cc1c(C(=O)N2CCN(c3ccccc3)CC2)oc2c(Cl)cccc12,"inconclusive [inhibitor, single point]"
5,Cn1nc([N+](=O)[O-])nc1Sc1nnnn1-c1ccc(C(=O)O)cc1,"inconclusive [inhibitor, single point]"
6,c1ccc(C2=NN(c3ccccc3)CC2)cc1,inactive
7,O=C(CSc1nc2ccccc2nc1N1CCCC1)Nc1ccc(Cl)cc1,"inconclusive [inhibitor, single point]"
8,CCOC(=O)c1c(NC(=O)CSc2nnc(-c3ccccc3C)n2C)sc(C(C)=O)c1C,"inconclusive [inhibitor, single point]"
9,CCCOc1ccc(CSC2=NCCN2)cc1[N+](=O)[O-],active: 14.7 µM
10,CN(Cc1nc(C(c2ccccc2)c2ccccc2)no1)CC1COCCO1 (configuration not stated),inactive
11,O=c1[nH]c2ccc([N+](=O)[O-])cc2nc1/C=C(\O)c1ccccc1,inactive
12,CCOc1nc(Nc2ccc(Cl)cc2)nc(OCC)n1,"inconclusive [inhibitor, single point]"
13,Cc1onc(-c2c(Cl)cccc2Cl)c1C(=O)c1c[nH]c(C(=O)NC2CC2)c1,"inconclusive [inhibitor, single point]"
14,CS(=O)(=O)Nc1ccc2c(c1)nc1n2CCOC1,inactive
15,O=C(CCCN1CCC(O)(c2ccc(Br)cc2)CC1)c1ccc(F)cc1,active: 8.28 µM
16,Cc1ccc(-c2nn(-c3ccccc3)cc2/C=N/NC(=O)CSc2nnc(C)n2-c2ccccc2)cc1,"inconclusive [inhibitor, partial curve]"
17,CC(C)N(C(C)C)S(=O)(=O)c1ccc(N2CCc3ccccc3C2)nc1,"inconclusive [inhibitor, single point]"
18,CC(C)CN1C(=O)CC(Sc2ccccc2C(=O)O)C1=O (configuration not stated),inactive
19,COc1ccccc1-n1c(=O)oc2ccc(Cl)cc2c1=O,"inconclusive [inhibitor, single point]"
20,Cn1cnc(S(=O)(=O)N2CCN(C(c3ccccc3)c3ccccc3)CC2)c1,"inconclusive [inhibitor, partial curve, poor fit]"
21,CC(C)NC(=O)CSc1nc(Cc2cccs2)nc2ccccc12,"inconclusive [inhibitor, single point]"
22,Cc1nn(C2CCS(=O)(=O)C2)c2nc(C3CC3)cc(C(=O)Nc3cccc(C#N)c3)c12 (configuration not stated),"inconclusive [inhibitor, single point]"
23,CCCCc1cc(=O)oc2cc(C)cc(OCC(=O)N3C[C@H]4C[C@@H](C3)c3cccc(=O)n3C4)c12,active: 10.4 µM
24,CCOc1ccc2[nH]c3c(NCCN(C)C)ncnc3c2c1,active: 2.33 µM

row,SMILES,Potency
1,CCC(C)NC(=O)CN1C(=O)NC2NC(=O)NC21 (configuration not stated),"inconclusive [inhibitor, single point]"
2,N#C/C(=C/c1cccs1)c1nc2ccccc2[nH]1,"inconclusive [inhibitor, single point]"
3,O=S(=O)(NCC(O)c1ccccc1)c1cc(Cl)sc1Cl (configuration not stated),"inconclusive [inhibitor, single point]"
4,C/C(=N/NC(=O)C1CC1(c1ccccc1)c1ccccc1)c1ccco1 (configuration not stated),"inconclusive [inhibitor, partial curve, poor fit]"
5,O=C(CN1C(=O)c2cccc([N+](=O)[O-])c2C1=O)N1CCN(S(=O)(=O)c2ccccc2)CC1,inactive
6,O=C(CSC1=NCCS1)Nc1nc2c(s1)CCCC2,inactive
7,COc1ccc(CC(=O)Nc2cccc(-c3nnc(-c4ccco4)o3)c2)cc1,"inconclusive [inhibitor, partial curve, poor fit]"
8,CCCCC(C(=O)OCC)C(N)Cc1ccc(F)cc1 (configuration not stated),"inconclusive [inhibitor, single point]"
9,CCCCN(C)S(=O)(=O)c1ccc(C(=O)Nc2nnc(-c3ccco3)o2)cc1,"inconclusive [inhibitor, partial curve, poor fit]"
10,COc1ccc(C2(C(=O)NC(C)C)CCCC2)cc1OC,inactive
11,CC(C)(C)c1ccc(-c2nc(NCc3cccnc3)c3ccccc3n2)cc1,"inconclusive [inhibitor, single point]"
12,COc1ccccc1CC(=O)NC1CCCCCC1,inactive
13,Cc1cccc(/C=C/c2onc(C)c2S(=O)(=O)N2CCC(C(=O)N3CCCCCC3)CC2)c1,"inconclusive [inhibitor, full curve, poor fit]"
14,CCCCCN(C(=O)CCC(=O)OCCOc1cccc(Cl)c1)c1c(N)n(CCCC)c(=O)[nH]c1=O,"inconclusive [inhibitor, single point]"
15,Nc1ccc(Nc2cc(O)c3ncccc3c2)cc1,active: 10.4 µM
16,Cc1ccc(N(C(=O)Cc2cccs2)C(C(=O)NC2CCCC2)c2ccncc2)cc1 (configuration not stated),"inconclusive [inhibitor, single point]"
17,CC(=O)Nc1ccc(C(=O)Nc2nc(-c3cc(C)n(Cc4ccccc4)c3C)cs2)cc1,"inconclusive [inhibitor, single point]"
18,Cc1ccc(O)c(NC(=O)c2cc(-c3cccs3)on2)c1,"inconclusive [inhibitor, single point]"
19,COc1ccc(Cl)cc1NC(=O)CN(C)Cc1cccs1,"inconclusive [inhibitor, single point]"
20,CC1(C)CC(=O)C(C=Nc2ccccc2)=C(O)C1,inactive
21,COC(=O)c1ccccc1NC(=O)c1cc(-c2cccs2)on1,inactive
22,COc1ccc(S(=O)(=O)N(CC(=O)N/N=C/c2ccccc2C(=O)O)c2ccccc2OC)cc1,"inconclusive [inhibitor, single point]"
23,CCc1cccc(C)c1NS(=O)(=O)c1cc(Br)cnc1N,"inconclusive [inhibitor, single point]"
24,COc1ccc(-c2cc(C3CCN(C(=O)OC(C)(C)C)CC3)[nH]n2)cc1,"inconclusive [inhibitor, single point]"

row,SMILES,Potency
1,CCCNC(=O)NC(=O)CSc1nc2ccccc2c(=O)n1Cc1ccncc1,"inconclusive [inhibitor, partial curve, poor fit]"
2,CCOc1ccc(-c2onc(C(F)(F)F)c2-c2cscn2)c(O)c1,active: 4.65 µM
3,OCCC1CN(CC2CCCCC2)CCN1CC1CCCCC1 (configuration not stated),inactive
4,COC(=O)C1=C(c2cccc(C#N)c2)C[C@@H]2CC[C@H]1N2C(=O)NC1Cc2ccccc2C1,"inconclusive [inhibitor, partial curve, poor fit]"
5,O=c1c2ccccc2nc(-c2ccc(Cl)cc2Cl)n1-c1ccncc1,"inconclusive [inhibitor, full curve, poor fit]"
6,CC1Oc2ccccc2C=C1/C=N/NC(=O)[C@@H](C)NC(=O)OC(C)(C)C (some centres not stated),"inconclusive [inhibitor, full curve]"
7,CNCC[C@H](Oc1cccc2ccccc12)c1cccs1,active: 13.5 µM
8,CC(C)(C)c1ccc(C(=O)c2c[nH]c(C(=O)NCCc3ccccn3)c2)cc1,active: 10.4 µM
9,O=C(Cc1ccc(F)cc1)Nc1ccc2[nH]ncc2c1,inactive
10,NC(=S)Nc1ccc2cc[nH]c2c1,"inconclusive [inhibitor, single point]"
11,CN1C(=O)CC(NNC(=O)c2ccc(Cl)cc2)C1=O (configuration not stated),"inconclusive [inhibitor, partial curve, poor fit]"
12,CSc1nc(SCC(=O)NC(c2ccccc2)c2ccccc2)c2c3c(sc2n1)CN(C)CC3,active: 7.38 µM
13,COc1ccc2[nH]c(=O)c(CN(Cc3cccnc3)C(=O)Nc3ccccc3)cc2c1,"inconclusive [inhibitor, partial curve, poor fit]"
14,COc1ccc(CCNC(=O)C2c3ccccc3C(=O)N2CCC(C)C)cc1OC (configuration not stated),inactive
15,COc1ccc(CC(=O)NNc2ncnc3c2cnn3C)cc1,inactive
16,O=C(CN1CCC(C(O)(c2ccccc2)c2ccccc2)CC1)Nc1ccccc1,active: 10.4 µM
17,COc1ccc(C(C(=O)NC(C)(C)C)N(C(=O)CCC(=O)Nc2cc(C)on2)c2cccc(F)c2)cc1 (configuration not stated),"inconclusive [inhibitor, single point]"
18,COc1cccc(SCC2CSc3nc4ccccc4c(=O)n32)c1 (configuration not stated),inactive
19,O=C1c2ccccc2C(=O)N1CCSc1nncs1,inactive
20,COc1cccc(NC(=O)CN2C(=O)C(c3ccc(C)cc3)=NC23CCCCCC3)c1,"inconclusive [inhibitor, partial curve, poor fit]"
21,CN(CCO)c1cc(NCCCN2CCC(Cc3ccccc3)CC2)c2nonc2c1[N+](=O)[O-],active: 10.4 µM
22,CC(C)c1cc(Br)ccc1OCCN1C(=O)NC(C)(C)C1=O,"inconclusive [inhibitor, single point]"
23,C=CCn1c(NCc2ccc(OC)cc2)nc2ccccc21,inactive
24,S=c1[nH]nc(-c2ccccn2)n1/N=C/c1ccc(Br)s1,inactive
